Test results taken from the supplement of paper PMC7826260.
Some of the results follow. The data describe in vitro nicking of single-stranded DNA by Rep domains (3 µM enzyme, 1 h, 37 °C); shown is the middle of each 90-letter strand. Numbers give uncut DNA relative to the enzyme-free pool, as log2; uncut sequences lie near 0, cut ones below; no hit call is given. Reads are scaled to the total; where an enzyme cuts many sequences, the uncut ones exceed 0.

Tests used:
Assay in all cases: uncleaved DNA left, log2 of reads against the no-enzyme library (log2 ratio); higher = less cleavage (more negative = more Rep cleavage of the k-mer); sequences stand for … in CTCGTCCG…ACCGGAGA
[1] = system: T1, Rep nickase domain of Muscovy duck circovirus
T1 sequence (protein, residues 1-111, tag omitted): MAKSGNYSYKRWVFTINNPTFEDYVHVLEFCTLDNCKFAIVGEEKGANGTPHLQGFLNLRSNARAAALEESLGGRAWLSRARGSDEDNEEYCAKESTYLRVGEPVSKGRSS
Experimental: (§1)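 A pool of 90-nt single-stranded DNAs with seven random bases just before the constant AC of the nick site (name = the seven bases) was cut by 3 µM recombinant His6-SUMO-tagged Rep nickase domain (300 nM DNA, 50 mM HEPES pH 8.0, 50 mM NaCl, 1 mM MnCl2, 1 h, 37 °C, three replicates). Uncut DNA was amplified and sequenced.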

[2] = system: T2, Rep nickase domain of banana bunchy top virus
T2 sequence (protein, residues 1-94, tag omitted): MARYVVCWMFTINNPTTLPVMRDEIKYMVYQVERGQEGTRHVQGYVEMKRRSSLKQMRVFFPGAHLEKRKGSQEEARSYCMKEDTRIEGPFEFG
Experimental: as §1

[3] = system: T3, Rep nickase domain of cabbage leaf curl virus
T3 sequence (protein, residues 1-116, tag omitted): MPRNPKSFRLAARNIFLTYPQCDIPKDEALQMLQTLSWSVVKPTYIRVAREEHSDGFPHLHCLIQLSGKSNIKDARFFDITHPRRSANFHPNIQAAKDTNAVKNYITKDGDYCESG
Experimental: as §1

[4] = system: T4, Rep nickase domain of chickpea chlorotic dwarf virus
T4 sequence (protein, residues 1-124, tag omitted): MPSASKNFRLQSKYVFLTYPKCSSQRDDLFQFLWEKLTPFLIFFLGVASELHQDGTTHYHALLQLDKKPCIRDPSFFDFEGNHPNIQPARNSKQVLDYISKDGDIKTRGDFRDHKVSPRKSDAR
Experimental: as §1

[5] = system: T5, Rep nickase domain of faba bean necrotic yellows virus
T5 sequence (protein, residues 1-98, tag omitted): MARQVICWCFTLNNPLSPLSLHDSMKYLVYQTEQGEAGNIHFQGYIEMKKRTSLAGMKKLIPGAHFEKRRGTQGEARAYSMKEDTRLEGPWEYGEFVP
Experimental: as §1

[6] = system: T6, Rep nickase domain of maize striate mosaic virus
T6 sequence (protein, residues 1-117, tag omitted): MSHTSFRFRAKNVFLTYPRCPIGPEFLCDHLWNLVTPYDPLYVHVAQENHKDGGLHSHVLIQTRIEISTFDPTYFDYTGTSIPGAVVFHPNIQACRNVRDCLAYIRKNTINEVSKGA
Experimental: as §1

[7] = system: T7, Rep nickase domain of porcine circovirus 2
T7 sequence (protein, residues 2-116, tag omitted): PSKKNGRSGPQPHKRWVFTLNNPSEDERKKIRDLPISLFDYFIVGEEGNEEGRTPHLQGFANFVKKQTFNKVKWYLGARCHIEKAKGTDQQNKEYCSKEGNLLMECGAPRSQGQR
Experimental: as §1

[8] = system: T8, Rep nickase domain of tomato yellow leaf curl virus
T8 sequence (protein, residues 1-136, tag omitted): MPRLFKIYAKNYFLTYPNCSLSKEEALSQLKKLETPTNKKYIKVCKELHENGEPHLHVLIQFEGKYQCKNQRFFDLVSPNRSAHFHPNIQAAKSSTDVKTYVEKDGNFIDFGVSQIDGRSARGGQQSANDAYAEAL
Experimental: as §1

[9] = system: T9, Rep nickase domain of wheat dwarf virus
T9 sequence (protein, residues 1-137, tag omitted): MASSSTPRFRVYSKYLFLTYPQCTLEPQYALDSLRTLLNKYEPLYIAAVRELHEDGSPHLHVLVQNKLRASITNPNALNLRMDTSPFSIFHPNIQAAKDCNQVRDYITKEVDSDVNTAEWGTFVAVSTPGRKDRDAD
Experimental: as §1

| Sequence | uncleaved DNA left (log2) [1] | uncleaved DNA left (log2) [2] | uncleaved DNA left (log2) [3] | uncleaved DNA left (log2) [4] | uncleaved DNA left (log2) [5] | uncleaved DNA left (log2) [6] | uncleaved DNA left (log2) [7] | uncleaved DNA left (log2) [8] | uncleaved DNA left (log2) [9] |
| --- | --- | --- | --- | --- | --- | --- | --- | --- | --- |
| AGATCGC | -0.154 | -0.0266 | -0.37 | -0.496 | -0.121 | -1.06 | 0.00483 | -0.1 | -0.0912 |
| CGCTTTC | 0.0262 | -0.0982 | -0.0313 | -0.141 | -0.0243 | -0.564 | 0.0598 | -0.106 | -0.0687 |
| TAATTGT | -3.77 | -0.289 | -4.2 | -3.3 | -0.0643 | -3.95 | -3.98 | -0.938 | -3.96 |
| GCAATCG | 0.042 | 0.0672 | -0.79 | -0.294 | 0.00898 | -0.941 | 0.166 | -0.0313 | -0.13 |
| GAACTAG | 0.142 | 0.132 | -0.366 | -0.591 | 0.179 | -0.825 | 0.118 | 0.128 | 0.0884 |
| AGGCACA | -0.0201 | 0.176 | 0.304 | 0.476 | 0.07 | 1 | 0.0933 | 0.0877 | 0.141 |
| CGTCATT | -0.0744 | -0.0247 | 0.119 | -0.96 | -0.126 | 0.147 | -1.87 | 0.135 | 0.0554 |
| ACTCCCC | 0.0021 | -0.12 | 0.0152 | -0.237 | -0.0811 | -0.254 | -0.588 | -0.177 | 0.00926 |
| CCCGCCG | -0.141 | -0.0875 | -0.792 | -0.387 | -0.0485 | -0.881 | -0.0781 | -0.205 | -0.202 |
| AGATTCA | -0.104 | -0.0229 | 0.0618 | -0.288 | -0.0164 | -0.0541 | -0.151 | -0.0961 | -0.0762 |
| GACTAGC | -0.000907 | -0.0232 | -0.0212 | 0.111 | -0.0739 | -0.453 | 0.104 | -0.048 | 0.054 |
| ACGCCCA | -0.229 | -0.0511 | -0.229 | -0.782 | -0.18 | -0.477 | -0.115 | -0.0869 | -0.101 |
| CCGCCTG | -0.0345 | 0.0516 | -0.108 | 0.407 | 0.0566 | 0.898 | -0.00137 | -0.0385 | -0.00238 |
| TCGCTTG | 0.107 | -0.0305 | -0.115 | -0.508 | 0.0719 | -0.329 | 0.0489 | -0.0357 | 0.0485 |
| GCCTTCT | -0.443 | 0.0471 | 0.0905 | -1.02 | 0.055 | -0.0177 | -1.76 | 0.0499 | -0.0162 |
